Broadly, the % Inhibition is the relative decrease from the control value, in per cent.

In all, about 150,000 compounds went through this assay and about 540 (0.36%) showed an effect of 50% or more. This is one part of the list.

This assay deals with Plasmodium falciparum. Kind of assay: Primary screen in NF54 nanoGlo assay, in single point, at 2uM, 72h; a lower Z score goes with more inhibition. The class given is functional, Erythrocyte. Particulars: timepoint 72 hour.
On to `c1cncc(-c2nccn2-c2ccc(-c3nnn[nH]3)cc2)c1`, for which the “% Inhibition” value is -3% and the Z score is 0.42.
The matching figures for `CCN(C(=O)C(C)OC(=O)C1Cc2ccccc2C(=O)O1)C1CCCCC1` (centres undefined): -1% and 0.19.
On to `CCc1onc(C)c1[C@@H]1CCCN1C(=O)c1nn(C)cc1Cl`, for which the “% Inhibition” value was -19% and the Z score turned out to be 2.53.
Regarding `CCC1CN(C(=O)c2cnn3ccc(C)nc23)CC1N1CCOCC1` (centres undefined), the “% Inhibition” value turned out to be 4% and the Z score is given as -0.37.
The corresponding values for `O=C(Cn1nc(COc2ccccc2)oc1=S)Nc1ccc2c(c1)OCO2` are -42% and 4.87.
The matching figures for `CC1CCN(C(=O)C[C@@H](CN2Cc3ccccc3C2=O)c2ccc(Cl)cc2)CC1`: 0% and 0.
The matching figures for `COc1ccc(C(=O)N2CCC(F)(C(=O)NCC3CC3)CC2)cc1F`: -12% and 1.49.
`CCc1nc(C)sc1CNC(=O)[C@H]1CCCN(C(C)C)C1`: the “% Inhibition” value is given as -13% and the Z score came to 1.35.
Regarding `CN(C)[C@@H](CNC(=O)c1ccc2c(c1)OCCO2)c1ccsc1`, the “% Inhibition” value is on record as -9% and the Z score was found to be 1.11.
With `CN1CCN([C@H]2CCN(Cc3cc4ccccc4o3)C2)CC1`, the “% Inhibition” value is reported as -2% and the Z score stood at 0.39.
As to `Cc1ncn(CC2CCN(S(=O)(=O)c3ccc4c(c3)CCO4)CC2)c(=O)c1C`, the “% Inhibition” value is -5% and the Z score is 0.68.
The matching figures for `Cc1nc(NC(=O)NCc2cc(C(F)F)on2)nn1C`: -6% and 0.79.
For the compound `Cn1nc(-c2ccccn2)c2[nH]c(-c3cccc(Cl)c3)nc21`, the “% Inhibition” value was -9% and the Z score worked out at 1.17.
The matching figures for `CC(C)[C@@H]1CN(C(=O)Nc2ccc3c(c2)OC2(CCCCC2)O3)CCO1`: -5% and 0.59.
With `Cc1ccc2sc(N(Cc3ccccn3)C(=O)CN3C(=O)CCC3=O)nc2c1C`, the “% Inhibition” value was -18% and the Z score worked out at 2.32.
Regarding `Cc1cnc(CN2C[C@]3(CCCN(C(=O)c4ccc(O)cc4)C3)CCC2=O)cn1`, the “% Inhibition” value is reported as -8% and the Z score is on record as 1.21.
The corresponding values for `Cc1cc(C)cc(NC(=O)Nc2ccc3nc4n(c(=O)c3c2)CCCC4)c1` are 2% and -0.22.
The corresponding values for `CCOc1c(Cl)cc(NC(=O)N[C@H]2CCO[C@@H]2c2ccncc2)cc1Cl` are 11% and -1.27.
For the compound `Cc1ncsc1CCN1CCC(C(=O)N(C)c2ccccc2)CC1`, the “% Inhibition” value is recorded as -5% and the Z score was determined as 0.52.
The corresponding values for `CCOc1ccc(NC(=O)N2CC[C@@]3(C2)C(=O)N(C)c2ccccc23)cc1` are -7% and 0.89.
The matching figures for `Cc1ccc(C(=O)N2CCN(C(=O)CN3C(=O)CCC3=O)CC2)c(O)c1`: -4% and 0.54.
The corresponding values for `CC(C)CCNC(=O)CCn1cncn1` are -7% and 0.79.
Turning to `CN(C[C@H]1Cc2ccccc2CO1)C(=O)c1nc2ccccc2s1`, the “% Inhibition” value was determined as 2% and the Z score was -0.28.
With `O=C(Nc1cccnc1)N[C@H]1CO[C@@H](CN2CCC(F)(F)CC2)[C@@H]1O`, the “% Inhibition” value is reported as 3% and the Z score is -0.55.
The matching figures for `O=C(NCc1ccccc1F)C1CCN(c2cncnc2N2CCCCC2)CC1`: -1% and 0.12.
The matching figures for `COc1cc(-c2cc(-c3ccc(N(C)C)nc3)c(C#N)c(N)n2)ccc1O`: 1% and -0.06.
Take `COC(=O)c1ccc(S(=O)(=O)N2CC(c3ccccn3)C2)n1C`: the “% Inhibition” value is on record as -13% and the Z score was determined as 2.62.
For `c1nn(Cc2nnc3n2CCCC3)cc1Nc1nc(C2CC2)ns1`, the “% Inhibition” value is listed as -6% and the Z score was 1.11.
The matching figures for `CC(=O)NC[C@@H]1C[C@H](F)CN1S(=O)(=O)c1c(C)nn(C)c1Cl`: -7% and 1.34.
The corresponding values for `Cc1cnc(C)c(NCC[C@H]2CCCOC2)n1` are -1% and 0.09.
As for `O=C(Nc1ccccc1N1CCCC1=O)c1cc(Cl)cc(Cl)c1`, the “% Inhibition” value is on record as -8% and the Z score is 1.13.
The matching figures for `O=S1(=O)CC(C2CN(c3cc(C4CC4)nc(C4CC4)n3)C2)C1`: -5% and 0.92.
Regarding `Cc1ccc(C(=O)N2CCC([C@H](NC(=O)CC(C)C)C(=O)N3CCCCC3)CC2)cc1`, the “% Inhibition” value is -8% and the Z score was 0.97.
For `CCOC(=O)N1CCC(n2ccnc2-c2nccn2C(C)C)CC1`, the “% Inhibition” value is -11% and the Z score is 1.32.
On to `CN(C)c1ccc([C@H]2C[C@@H]2C(=O)O)cc1`, for which the “% Inhibition” value came to 1% and the Z score was -0.18.
On to `O=C(c1nc2ccc(Cl)cn2c1CNC1(c2ccccc2)CC1)N1CCCCCCC1`, for which the “% Inhibition” value is listed as -8% and the Z score was 1.12.
Regarding `Cc1cc(CN2CCCN(C(=O)c3scnc3C)CC2)c(C)s1`, the “% Inhibition” value is -12% and the Z score was determined as 1.39.
The matching figures for `N#Cc1ccc(N2CCC[C@@H]2CO)c(F)c1`: -12% and 2.35.
The corresponding values for `C[C@@H](C(=O)NCC1(O)CCC(C)(C)CC1)c1cncnc1` are -7% and 0.65.
The corresponding values for `COc1cc(OC)c(NC(=O)CCNC(=O)Cn2cnc3ccccc3c2=O)cc1Cl` are 6% and -0.68.
Take `O=C(N[C@H]1CC(=O)N(c2ccc3c(c2)OCCO3)C1)C1CCCCC1`: the “% Inhibition” value is on record as -8% and the Z score is listed as 1.53.
The matching figures for `COc1cccc(N2CCN(CC(=O)Nc3ccn(C)n3)[C@@H](C)C2=O)c1`: -14% and 2.11.

The values above are taken from ChEMBL document CHEMBL4888484, “Replenishing the malaria drug discovery pipeline: Screening and hit evaluation of the MMV Hit Generation Library 1 (HGL1) against asexual blood stage Plasmodium falciparum ,using a nano luciferase reporter read-out” (2022).
